Source: PubChem BioAssay AID624417 (National Center for Advancing Translational Sciences (NCATS), 2012)
Among all 410,000 compounds or so, about 6,400 (1.6%) were called active. The shares of active, inactive and inconclusive entries below differ from those in the screen. The call rests on the fitted dose curve; in most records, active means well fitted inhibition curve with a large enough effect; inconclusive means small, poorly fitted or top-dose-only effect; inactive means no such curve, though single readings can be large or run the other way. Potencies of inconclusive entries are left out as doubtful fits.

biological target: Glucagon-like peptide 1 receptor (Homo sapiens) (UniProt P43220); assay: qHTS of GLP-1 Receptor Inverse Agonists (Inhibition Mode); settings: HEK293 GLP-1R CRE-luciferase, luminescence, 24 h, GLP-1R form is constitutively active; series mostly up to 38.3 µM; further: nearly all actives have a fitted effect of over 55% in size
Summary of the method: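 Seeding at 200 cells/uL, 12 h culture, 24 hr compound treatment, then luciferase reagent and a luminescence read; cells are HEK293 stably expressing a constitutively active GLP-1R plus cAMP-responsive luciferase.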
Potency means the concentration at half of the fitted maximal effect; tags describe the fitted curve by direction and shape.

Chain of UniProt P43220 (P43220 whole entry, looked up): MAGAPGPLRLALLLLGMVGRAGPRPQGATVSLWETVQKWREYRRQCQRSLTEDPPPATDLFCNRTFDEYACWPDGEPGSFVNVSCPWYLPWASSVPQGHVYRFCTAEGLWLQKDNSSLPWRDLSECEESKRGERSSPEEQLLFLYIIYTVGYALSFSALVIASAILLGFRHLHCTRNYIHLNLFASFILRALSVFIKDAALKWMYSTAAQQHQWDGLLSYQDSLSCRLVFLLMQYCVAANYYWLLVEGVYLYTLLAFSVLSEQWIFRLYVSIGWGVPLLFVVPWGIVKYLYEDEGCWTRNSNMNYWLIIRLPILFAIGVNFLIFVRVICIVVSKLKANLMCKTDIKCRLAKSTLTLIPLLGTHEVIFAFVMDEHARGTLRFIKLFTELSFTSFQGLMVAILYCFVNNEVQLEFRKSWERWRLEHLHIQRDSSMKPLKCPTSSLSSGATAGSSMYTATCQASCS

Compound	Potency
Cc1ccc(C23CC4CC(CC(C(=O)N(C)C)(C4)C2)C3)cc1	inconclusive [inhibitor, partial curve, poor fit]
Oc1ccccc1/C=N/Nc1nc2ccccc2o1	inconclusive [inhibitor, full curve, poor fit]
Cc1ccc(CCNC(=O)c2nc(CS(=O)(=O)c3ccc(Cl)cc3)no2)cc1	inconclusive [inhibitor, single point]
CCn1c(Cn2nnc(-c3ccccc3)n2)nnc1SCc1ccc(Cl)c(Cl)c1	inconclusive [inhibitor, partial curve, poor fit]
N#CC1=C(N)OC2=C(C(=O)CC(c3ccccc3)C2)C1c1ccc2c(c1)OCO2 (stereo unspecified)	inconclusive [inhibitor, single point]
COc1cccc(CNC(=O)c2ccc(S(=O)(=O)N3CCCC3)cc2)c1	inconclusive [inhibitor, partial curve, poor fit]
CCN(CC)S(=O)(=O)c1ccc2oc(Nc3ccc(OC)cc3OC)nc2c1	inconclusive [inhibitor, partial curve, poor fit]
Cc1[nH]c2ccccc2c1C(=O)C(=O)NCCc1c[nH]c2ccccc12	inconclusive [inhibitor, partial curve, poor fit]
O=C(OCC(=O)N1CCCc2ccccc21)c1ccccc1OC(F)F	inconclusive [inhibitor, partial curve, poor fit]
CC(C)(C)c1ccc(OCCC(=O)NCC(c2cccs2)N2CCOCC2)cc1 (stereo unspecified)	inconclusive [inhibitor, partial curve, poor fit]
O=C(NNc1cccc(Cl)c1)c1cccnc1Cl	active: 1.26 µM
CC(C)NC(=S)N/N=C1\CCCCC1C1CCCCC1 (stereo unspecified)	inconclusive [inhibitor, full curve, poor fit]
COc1ccc(SCC(O)Cn2c3ccccc3c3ccccc32)c(OC)c1 (stereo unspecified)	inconclusive [inhibitor, single point]
COc1cccc(N2CCN(C(=O)c3cc4c(=O)n(Cc5cccs5)ccc4nc3C)CC2)c1	inactive
O=C(CNC(=O)c1ccc(S(=O)(=O)N2CCCC2)cc1)N/N=C/c1ccccc1Cl	inconclusive [inhibitor, single point]
C=CCOc1ccccc1CN1CCC(Cc2ccccc2)CC1	inconclusive [inhibitor, single point]
CC(=O)Nc1ccc(NC2=Nc3ccccc3N3C2=Nc2c(c(C)nn2-c2ccccc2)C3c2ccccc2)cc1 (stereo unspecified)	inactive
CN1CSC2=C(C#N)C(c3cccc(OCc4ccccc4)c3)CC(=O)N2C1 (stereo unspecified)	inconclusive [inhibitor, single point]
c1ccc(Cn2ncc3c(N4CCCCC4)ncnc32)cc1	inconclusive [inhibitor, single point]
CCc1ccc(C(=O)COC(=O)c2cc([N+](=O)[O-])ccc2NCCO)cc1	inconclusive [inhibitor, single point]
CCN(CC(=O)NCc1ccc(Cl)cc1)C(=O)c1cc(S(=O)(=O)N2CCOCC2)ccc1C	inconclusive [inhibitor, single point]
O=C(NC1C2CCCC1CN(C1CC1)C2)c1ccc(Cl)cc1 (stereo unspecified)	inconclusive [inhibitor, full curve, poor fit]

Compound	Potency
CCOC(=O)c1ccc(NC(=O)c2csc3c2CCCC3)cc1	inconclusive [inhibitor, partial curve, poor fit]
Cc1ccc(-c2cnc3cccnn23)cc1F	inactive
S=C(Nc1ccccc1)Nc1nccs1	inconclusive [inhibitor, partial curve, poor fit]
CCN1CCCC1CNC(=O)c1cc(COc2ccc(C)c(C)c2)on1 (stereo unspecified)	inconclusive [inhibitor, partial curve, poor fit]
C=C(C)CNC(=S)N/N=C1\CCCCc2ccccc21	inconclusive [inhibitor, partial curve, poor fit]
CC[C@@H](C)[C@H](NC(=O)OCc1ccccc1)c1nnc([C@@H](NC(=O)OCc2ccccc2)[C@@H](C)CC)o1	inconclusive [inhibitor, single point]
Cc1cc(C)c(S(=O)(=O)c2ccccc2C)c(SCC(C)C)n1	inconclusive [inhibitor, single point]
Cc1ccc(/C=N/NC(=O)CCn2nc(C)cc2C)c(C)c1	inconclusive [inhibitor, partial curve, poor fit]
O=C(O)COc1ccccc1/C=N/NC(=O)c1cc2ccccc2cc1O	inactive
CC(=O)N1CC2(NC(=O)c3ccccc3N2)c2ccccc21 (stereo unspecified)	inactive
O=C(CCC(=O)Nc1cc(C(F)(F)F)ccc1Cl)N/N=C\c1cc([N+](=O)[O-])ccc1O	inconclusive [inhibitor, partial curve]
COc1ccc(-c2cnc(C(O)c3ccc(-c4ccccc4)cc3)[nH]2)cc1 (stereo unspecified)	inconclusive [inhibitor, single point]
CCOC(=O)C1C(=O)C=C(c2ccc(C)cc2)CC1c1ccccc1 (stereo unspecified)	inconclusive [inhibitor, partial curve, poor fit]
COc1ccc(/C=C(\C#N)c2c[nH]c3ccccc23)cc1	inconclusive [inhibitor, full curve, poor fit]
CCn1c(CN2CCCCC2)nc2cc(NC(=O)c3ccccc3[N+](=O)[O-])ccc21	inconclusive [inhibitor, single point]
Cc1cccc(NC(=S)NC2CCCCCC2)c1C	inconclusive [inhibitor, single point]
Cc1nn(-c2ccccc2)c(OC(=O)c2ccc(F)cc2)c1S(=O)(=O)c1ccccc1	inactive
COc1ccccc1/C=C(/C(=O)OCC(=O)NCc1ccccc1)c1ccccc1	inconclusive [inhibitor, partial curve, poor fit]
CCCOC(=O)c1ccc(NC(=O)c2cnccn2)cc1	inactive
CCOC(=O)C1=C(CN2CCN(c3cccc(OC)c3)CC2)NC(=O)NC1c1ccc(OC)cc1 (stereo unspecified)	inconclusive [inhibitor, single point]
COc1ccc(NS(=O)(=O)c2ccc3c(c2)CC(C)N3C(C)=O)c(OC)c1 (stereo unspecified)	inactive
CCOC(=O)C1=C(CN2CCC(C)CC2)NC(=O)NC1c1ccc(Cl)cc1 (stereo unspecified)	inactive

Compound	Potency
Cn1c(=O)c2c(n3ncnc13)NC(=O)CC2c1cccc(F)c1 (stereo unspecified)	inactive
CCCCn1c(N)c(N(CC(C)C)C(=O)c2cc(-c3ccc(F)cc3)nc3ccccc23)c(=O)[nH]c1=O	inconclusive [inhibitor, single point]
C=Cc1ccc(CSc2nnc(C)n3c2cc2occc23)cc1	inactive
CCc1cc2cc3c(cc2nc1SCC(=O)OC(C)C)OCO3	inconclusive [inhibitor, partial curve, poor fit]
CCCC(=O)Nc1sc(C(=O)OC)c(C)c1C(N)=O	inactive
COc1ccc(NC(=O)c2oc3c(c2C)-c2nn(Cc4ccccc4Cl)cc2CC3)cc1OC	inconclusive [inhibitor, single point]
C=CCOc1c(Cl)cc(C(=S)N2CCCC2)cc1OCC	inconclusive [inhibitor, single point]
COc1cc(/C=C/c2ccc3cccc(O)c3n2)cc(Br)c1OC	active: 4.47 µM
CN(NC(=O)c1cccc(Cl)c1)c1nc(-c2ccccc2)nnc1C(F)(F)F	inconclusive [inhibitor, full curve, poor fit]
COc1ccccc1N1C(=O)CC(Sc2nccc(C)n2)C1=O (stereo unspecified)	inactive
CCOc1ccc(-c2nc(CSc3nnc(N)s3)cs2)cc1	inactive
COc1cccc(-c2nc(CS(=O)(=O)CC(=O)NCCc3ccc(OC)c(OC)c3)c(C)o2)c1	inactive
Cc1ccc(C(=O)Nc2nc(-c3nnn(-c4cccc(Cl)c4C)c3C)ns2)cc1C	inconclusive [inhibitor, partial curve, poor fit]
COc1ccc(CCN2C(=O)NC(NC(=O)CCc3ccccc3)(C(F)(F)F)C2=O)cc1OC (stereo unspecified)	inconclusive [inhibitor, single point]
CC1Nc2ncnc(N3CCc4ccccc4C3)c2N(Cc2ccc(Cl)cc2)C1=O (stereo unspecified)	inconclusive [inhibitor, single point]
O=C(Nc1ccc(N2CCCC2)c(Cl)c1)c1ccc([N+](=O)[O-])o1	inconclusive [inhibitor, single point]
COc1ccc(CCNC(=O)CN2C(=O)NC(Cc3c[nH]c4ccccc34)C2=O)cc1 (stereo unspecified)	inconclusive [inhibitor, full curve]
O=C(Nc1ccc(F)cc1)C1CCCN(c2ncnc3c2nc2n3CCCCC2)C1 (stereo unspecified)	inconclusive [inhibitor, partial curve]
Cc1ccc(-c2nnc(CSc3nnc(COc4ccccc4)n3-c3ccccc3)o2)cc1	active: 10 µM
Cc1ccc(C(=O)CSc2cnc3ccccc3n2)cc1C	inconclusive [inhibitor, single point]
Nc1ccc2c(c1)C(=O)Cc1ccccc1S2	inconclusive [inhibitor, single point]
Cc1cc(C#N)c(C)n1-c1cc(C(F)(F)F)ccc1N1CCOCC1	inconclusive [inhibitor, partial curve]
